In article PMC4336329 (PLoS ONE, 2015):
Among all 310,000 compounds or so, about 2,200 (0.71%) showed an effect of 50% or more. The effect is printed as a negative number. Some of the results follow.

Biological target: human ether-à-go-go-related gene (hERG) potassium channel (human, UniProt Q12809)
Test: primary screen, population patch clamp on CHO cells stably expressing hERG

Sequence of human ether-à-go-go-related gene (hERG) potassium channel (Q12809 whole entry, looked up): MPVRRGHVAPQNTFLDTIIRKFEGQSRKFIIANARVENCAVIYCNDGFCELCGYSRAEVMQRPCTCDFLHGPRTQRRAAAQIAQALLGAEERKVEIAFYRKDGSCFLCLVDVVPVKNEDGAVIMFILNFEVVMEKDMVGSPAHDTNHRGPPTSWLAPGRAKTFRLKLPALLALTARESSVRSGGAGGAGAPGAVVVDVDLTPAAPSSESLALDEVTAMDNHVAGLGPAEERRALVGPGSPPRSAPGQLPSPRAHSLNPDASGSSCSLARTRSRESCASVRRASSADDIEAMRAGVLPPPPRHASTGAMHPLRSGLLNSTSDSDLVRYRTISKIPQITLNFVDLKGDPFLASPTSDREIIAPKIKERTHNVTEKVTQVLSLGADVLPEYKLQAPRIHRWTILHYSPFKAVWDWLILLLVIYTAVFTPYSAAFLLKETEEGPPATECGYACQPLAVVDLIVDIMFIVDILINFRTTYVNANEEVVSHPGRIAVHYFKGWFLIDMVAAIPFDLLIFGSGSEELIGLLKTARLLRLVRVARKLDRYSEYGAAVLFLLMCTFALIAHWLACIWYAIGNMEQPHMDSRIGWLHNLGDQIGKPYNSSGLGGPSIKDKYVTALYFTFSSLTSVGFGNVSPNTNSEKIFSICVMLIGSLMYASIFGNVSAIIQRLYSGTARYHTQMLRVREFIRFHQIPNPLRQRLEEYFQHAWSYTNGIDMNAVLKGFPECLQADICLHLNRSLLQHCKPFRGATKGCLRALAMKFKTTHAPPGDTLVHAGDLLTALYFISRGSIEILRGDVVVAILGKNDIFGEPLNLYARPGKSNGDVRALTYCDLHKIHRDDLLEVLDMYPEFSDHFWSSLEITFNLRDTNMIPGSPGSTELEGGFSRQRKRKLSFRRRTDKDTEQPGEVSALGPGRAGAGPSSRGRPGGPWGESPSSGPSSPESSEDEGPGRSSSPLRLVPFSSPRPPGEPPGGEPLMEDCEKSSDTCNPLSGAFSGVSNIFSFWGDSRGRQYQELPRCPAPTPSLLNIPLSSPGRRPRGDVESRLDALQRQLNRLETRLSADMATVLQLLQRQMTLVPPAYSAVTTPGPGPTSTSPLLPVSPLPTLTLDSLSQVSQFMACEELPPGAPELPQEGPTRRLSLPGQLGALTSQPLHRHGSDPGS

SMILES	hERG current change (%, negative = inhibition) at 1uM [%]
CCOc1cc(C(=O)N2CCN(c3ccccc3)CC2)cc(OCC)c1OCC	10.4
COc1ccc(-c2cc(=O)oc3c(C)c(OCC(=O)Nc4cccnc4)ccc23)cc1	19.8
O=C(CN1c2cccc3cccc(c23)S1(=O)=O)Nc1ccccc1F	18.6
Cc1ccc(N2C(S)=C(C#N)C(=O)NC23CCCCC3)cc1	13.9
CC1CCCN(CC(O)COc2ccc(S(=O)(=O)N3CCCC3)cc2[N+](=O)[O-])C1 (stereo not drawn)	8.33
CCn1nc(C(=O)Nc2cccc(C(F)(F)F)c2)c(Cl)c1Cl	19.2
CCN(CCn1cccn1)C(=O)C1CCC(=O)N(CC2CCCCC2)C1 (stereo not drawn)	13.2
Cn1c(N)c(C(=O)COC(=O)Cc2ccsc2)c(=O)n(C)c1=O	0.0047
O=C(CSc1nnnn1-c1cccnc1)Nc1ccc(F)cc1F	11.1
COc1cc(CN(CCc2c(C)[nH]c3ccc(C)cc23)C(=S)NC(C)(C)C)cc(OC)c1OC	10.4
CCC(C(=O)Nc1cccnc1)c1ccccc1 (stereo not drawn)	13.6
CC1CCN(C(=O)CCl)CC1	2.62
COc1ccc(N2CCN(C(=O)CN(CCc3ccccc3)S(C)(=O)=O)CC2)cc1	-0.846
O=C(Nc1ccccc1)c1cccc(S(=O)(=O)NCc2ccco2)c1	8.41
CCOc1ccc(CC2S/C(=N/N=C/c3ccco3)NC2=O)cc1 (stereo not drawn)	17.5
OCCN=C1CCCc2c1[nH]c1ccc(Br)cc21	12.4
Cc1ccc(NC(=O)COS(=O)c2ccc(C)cc2)cc1 (stereo not drawn)	-1.55
CN(C(=O)COC(=O)c1ccc(-c2ccc(O)cc2)cc1)C1CCS(=O)(=O)C1 (stereo not drawn)	2.61
COc1ccc(-c2nc(-n3c(C)c(C(C)=O)c(C(C)=O)c3C)sc2C)cc1OC	9.81
CC(=O)N1c2ccc(S(=O)(=O)N3CCC(C(=O)Nc4ccccn4)CC3)cc2CC1C (stereo not drawn)	17.6
CCOCCCNC(=O)C1CCCN1C(=O)Nc1ccccc1[N+](=O)[O-] (stereo not drawn)	9.35
CC(=O)OC1C2CCCC1C([NH+]1CCCC1)CC2.[Cl-] (stereo not drawn)	5.02

SMILES	hERG current change (%, negative = inhibition) at 1uM [%]
CCOc1cc(Br)c(CN2C(=O)NC3(CCCCCC3)C2=O)cc1OCC	10.7
COc1ccc(/C=N/OC/C(O)=C(\C#N)c2nc3ccccc3[nH]2)cc1OC	-0.932
CCCCNC(=O)c1onc(CSc2cccc(OC)c2)c1C(=O)NCCCC	6.46
COc1ccc2c3n([n+]([O-])c2c1)CCN=C3c1ccc(C)cc1	7.29
CCCn1c(C(CO)Nc2nc(-c3cccc(Br)c3)cs2)nc2ccccc21 (stereo not drawn)	4.28
O=C(c1ccc(Cl)c(NC2=NC3CS(=O)(=O)CC3S2)c1)N1CCN(c2ccc(F)cc2)CC1 (stereo not drawn)	13.8
COc1ccccc1C(=O)Nc1cc(Cl)ccc1O	7.76
COc1ccc(-n2nc3cc(C)c(N)c(Br)c3n2)cc1	13.2
Fc1cccc2sc(N3CCCCC3)nc12	8.11
CCOc1ccc(NC(=O)N2CCN(C(=O)c3ccco3)CC2)cc1	5.4
O=c1[nH]nc(Cc2ccc(-c3ccccc3Cl)o2)c2ccccc12	5.09
COc1ccc(C(NC(=O)CNC(C)=O)C(=O)Nc2ccc(C(C)C)cc2)cc1 (stereo not drawn)	3.85
O=C1C(=O)N(CCS(=O)(=O)c2ccccc2)c2ccccc21	18.3
O=C(C1CCCN(S(=O)(=O)c2cc(Cl)ccc2Cl)C1)N1CCCCCC1 (stereo not drawn)	-7.58
O=C(N/N=C/c1ccc(O)c(O)c1)C1c2ccccc2Oc2ccccc21	1.26
CCOC(=O)C(Cc1c(F)cccc1F)(NC(C)=O)C(=O)OCC	8.71
COc1cc(C(=O)N2CCC(NC(=O)C(Cc3ccc(C(C)C)cc3)NC(C)=O)CC2)cc(OC)c1OC (stereo not drawn)	1.91
CCC1CCCCN1CCCNC(=O)c1cn(CC(C)C)c(=O)c2cc(OC)c(OC)cc12 (stereo not drawn)	6.03
COC(=O)C1=C(CN2CCc3ccccc32)NC(=O)NC1c1cc(C)ccc1C (stereo not drawn)	-6.29
CN1CCC(C(=O)N2CCCC(C(=O)c3ccc4c5c(cccc35)CC4)C2)CC1 (stereo not drawn)	-24.8
COc1ccc(C2/C(=C(/O)c3ccccc3)C(=O)C(=O)N2CCCN2CCOCC2)cc1 (stereo not drawn)	23.1
Oc1ccc2ccccc2c1C=Nc1ccccc1-c1nc2ccccc2[nH]1	-4.13

SMILES	hERG current change (%, negative = inhibition) at 1uM [%]
O=C1CC(C2CCCO2)C(=O)N1c1ccc(Cl)c(Cl)c1 (stereo not drawn)	7.37
CCN(CC)c1ccc(C=Nc2ccc(N(C)C)cc2)c(O)c1	14.9
Cc1ccc(/C=C/C(=O)NC(=S)N2CCN(c3ccc(F)cc3)CC2)cc1	7.26
COc1cccc(N2[C@@H](CC(=O)O)c3ccc(/C=C/C(=O)O)cc3S2(=O)=O)c1	17.1
Cc1cc(C)n2nc(-c3ccsc3-n3c(C)ccc3C)cc2n1	10.4
Cc1ccc(S(=O)(=O)/N=C(\N)c2ccc(F)cc2)cc1	8.91
Cc1ccc(S(=O)(=O)N(C)/C(=N/S(=O)(=O)c2ccccc2)c2ccccc2)cc1	0.195
Cc1c(C(C)O)nnn1-c1nonc1N (stereo not drawn)	7.21
CCOC(=O)C1=NOC(COc2ccccc2C=O)C1 (stereo not drawn)	-2.95
CCOC(=O)c1cc2cc(C)ccc2[nH]1	5.92
C=CCN1N=C(/C=C/c2ccccc2)CCC1=O	8.49
O=C(Nc1ccc2c(c1)OCO2)c1ccc(Br)o1	9.54
CCOc1ccc2nc(NC(=O)CSc3nnnn3C3CCCCC3)sc2c1	3.87
NS(=O)(=O)c1ccc(CCNC(=O)CN2CCN(c3ccccc3F)CC2)cc1	12.7
COc1ccc(/C=C/C(=O)NC(C)(C)C)cc1S(=O)(=O)N1CCOCC1	-0.362
CCOC(=O)N1CCN(c2c(NCCN(C)Cc3ccccc3)c(=O)c2=O)CC1	8.5
Cc1ccc(NC(=O)c2sccc2-n2cccc2)c(Cl)c1	6.75
[Br-].c1cnc(N2CC[N+]3(CCCC3)CC2)nc1	6.62
O=C1/C(=C\c2cccc([N+](=O)[O-])c2O)SC(=S)N1Cc1ccccc1	28.6
C[C@]12CC[C@H](O)C[C@H]1CC[C@@H]1[C@@H]2CC[C@]2(C)[C@@H](C3=CC(=O)OC3)CC[C@]12O	17.2
COC(=O)c1ccc(OCCN2CCCCCC2)cc1.O=C(O)C(=O)O	7.77
Cc1cc(C)c2[nH]c(C(=O)Nc3ccc4c(c3)OCO4)cc2c1	12.3

SMILES	hERG current change (%, negative = inhibition) at 1uM [%]
OCCC1CN(Cc2cccc3nccnc23)CCN1Cc1ccc(F)cc1 (stereo not drawn)	-7.96
CN(C)c1nc(SCc2ccc(Cl)cc2)nc2c1CCCC2	12.7
COc1ccc(N2CCN(c3nc(-c4cccs4)nc4ccccc34)CC2)cc1	15
CCn1c(CCC(N)=O)nnc1SCC(=O)c1cc(C)n(C2CC2)c1C	-0.521
O=C(CSc1nnc(SCc2ccc(Cl)cc2)s1)N/N=C/c1ccc(C(=O)O)cc1	21.5
O=S(=O)(/N=C(/Nc1ccc(F)cc1F)c1ccccc1)c1ccccc1	-3.06
CCOC(=O)CN(C(=O)CCC(=O)Nc1cc(C)on1)C(C(=O)NC1CCCC1)c1cccnc1 (stereo not drawn)	2.22
Cc1ccc(O)c(NC(=O)C2=CC(c3ccco3)=NS(=O)(=O)N2C)c1	3.41
O=C(NC1CCN(C(=O)Nc2cccc(F)c2)CC1)C1CCCCC1	6.99
C[C@H](NC(N)=O)C(=O)N1CCN(S(=O)(=O)c2ccc3ccccc3c2)CC1	-40.6
CC1C=CCC2C(=O)N(c3cccc(C(=O)Nc4ccc(F)cc4)c3)C(=O)C12 (stereo not drawn)	9.38
CCOC(=O)C1C(c2ccccc2)C(C(=O)OCC)S(=O)(=O)C(CCN(CC)CC)S1(=O)=O (stereo not drawn)	7.2
CN1CCCN(C(=O)c2c(F)cccc2Cl)CC1	21.5
CCCCc1ccc(NC(=O)c2c(C)noc2C)cc1	7.48
O=C(Nc1ccc(OCc2ccccc2)cc1)Nc1cccnc1	12
Cc1ccccc1OCc1nc(-c2ccc(NC(=O)c3cccs3)cc2)no1	10.4
COc1cccc(CC(=O)Nc2ccc3nc(C)sc3c2)c1	13.3
CCOC(=O)COc1ccc(S(=O)(=O)N2CCN(c3ccc(OC)cc3)CC2)cc1	2.93
CSc1cccc(NC(=O)N2CCCC(CNS(=O)(=O)Cc3ccccc3)C2)c1 (stereo not drawn)	8.43
CC(=O)NC(Cc1cc(C)ccc1C)C(=O)N1CCN(C(=O)c2ccc([N+](=O)[O-])cc2)CC1 (stereo not drawn)	10.8
O=C(CSc1ncn(-c2ccccc2)n1)Nc1nc(-c2ccccc2)cs1	10.1
